According to the supplement of paper PMC10037445:
Whole data set: some 2,900 compounds, median “NF-kB SEAP reporter activity, fold change vs agonist alone” near 0.99, cut for the highest 2% near 2.6. The list shows a part of the results.

Legend:
[1] = system: RAW-Dual; test: NF-kB SEAP reporter activity, fold change vs agonist alone; higher = enhanced NF-kB activity
In short: (§1)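 After 50 nL of library stock was delivered by pin tool to RAW-Dual macrophages (50,000 cells/well, DMEM, 384-well plates), a PRR agonist was added 1 h later and the plates were kept at 37 °C, 5% CO2. Twenty hours later, IRF was read from supernatant by QuantiLuc luminescence and NF-κB by QuantiBlue absorbance at 620 nm. Reporter activity is stated as fold change over agonist-alone wells. Wells with IncuCyte confluency under 70% of agonist controls in both mask sets were counted as cytotoxic.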

[2] = system: RAW-Dual; test: NF-kB SEAP reporter activity, fold change vs agonist alone; cytotoxicity flag (confluency mask): not cytotoxic; higher = enhanced NF-kB activity
In short: as §1

[3] = system: RAW-Dual; test: NF-kB SEAP reporter activity, fold change vs agonist alone; cytotoxicity flag (confluency mask): cytotoxic (confluency <70% of control); higher = enhanced NF-kB activity
In short: as §1

[4] = library stock concentration (final ~1000-fold dilution): 10 mM, cytotoxicity flag (confluency mask): cytotoxic (confluency <70% of control), agonist: Imiquimod (TLR7) […]
[5] = library stock concentration (final ~1000-fold dilution): 10 mM, cytotoxicity flag (confluency mask): cytotoxic (confluency <70% of control), agonist: MPLA (TLR4) […]
[6] = agonist: ODN 1826 (TLR9) 0.5 ug/mL
[7] = agonist: Pam2CSK4 (TLR2/6) 0.1 ug/mL
[8] = agonist: Pam3CSK4 (TLR2/1) 0.1 ug/mL
[9] = library stock concentration (final ~1000-fold dilution): 10 mM, cytotoxicity flag (confluency mask): not cytotoxic, agonist: Imiquimod (TLR7) […]
[10] = library stock concentration (final ~1000-fold dilution): 10 mM, cytotoxicity flag (confluency mask): not cytotoxic, agonist: MPLA (TLR4) […]

CN(Cc1cnc2nc(N)nc(N)c2n1)c1ccc(C(=O)NC(CCC(=O)O)C(=O)O)cc1 (stereo not drawn)
NF-kB SEAP reporter activity ([1]; library stock concentration (final ~1000-fold dilution): 10 mM water, cytotoxicity flag (confluency mask): not cytotoxic, agonist: MPLA (TLR4) […]): 1.04 | NF-kB SEAP reporter activity [1, 4]: 0.759 | NF-kB SEAP reporter activity [1, 5]: 0.906

CCOC(=O)c1c2c3c(cccc3[nH]c1=O)C(=O)c1ccccc1-2 (library stock concentration (final ~1000-fold dilution): 10 mM)
NF-kB SEAP reporter activity ([2]; agonist: LPS (TLR4) 0.1 ug/mL): 1.1 | NF-kB SEAP reporter activity [2, 6]: 0.924 | NF-kB SEAP reporter activity [2, 7]: 0.817 | NF-kB SEAP reporter activity [2, 8]: 0.957

CCOC(=O)c1c2c3c(cccc3[nH]c1=O)C(=O)c1ccccc1-2
NF-kB SEAP reporter activity [1, 9]: 0.906 | NF-kB SEAP reporter activity [1, 10]: 1.09

CN(Cc1cc(Br)cc(Br)c1N)C1CCCCC1 (library stock concentration (final ~1000-fold dilution): 10 mM)
NF-kB SEAP reporter activity ([3]; agonist: LPS (TLR4) 0.1 ug/mL): 1.04 | NF-kB SEAP reporter activity [3, 6]: 0.386 | NF-kB SEAP reporter activity [3, 7]: 0.257 | NF-kB SEAP reporter activity [3, 8]: 0.423

CN(Cc1cc(Br)cc(Br)c1N)C1CCCCC1
NF-kB SEAP reporter activity [1, 4]: 1.15 | NF-kB SEAP reporter activity [1, 5]: 1.43

Nc1nc(N)c2nc(-c3cccc(O)c3)c(-c3cccc(O)c3)nc2n1 (library stock concentration (final ~1000-fold dilution): 10 mM)
NF-kB SEAP reporter activity ([2]; agonist: LPS (TLR4) 0.1 ug/mL): 1.23 | NF-kB SEAP reporter activity [2, 6]: 1.03 | NF-kB SEAP reporter activity [2, 7]: 1.02 | NF-kB SEAP reporter activity [2, 8]: 1.08

Nc1nc(N)c2nc(-c3cccc(O)c3)c(-c3cccc(O)c3)nc2n1
NF-kB SEAP reporter activity [1, 9]: 0.901 | NF-kB SEAP reporter activity [1, 10]: 0.951

Cn1cnc2c(F)c(Nc3ccc(Br)cc3Cl)c(C(=O)NOCCO)cc21
NF-kB SEAP reporter activity [1, 9]: 0.199 | NF-kB SEAP reporter activity [1, 10]: 0.216

Cn1cnc2c(F)c(Nc3ccc(Br)cc3Cl)c(C(=O)NOCCO)cc21 (library stock concentration (final ~1000-fold dilution): 10 mM)
NF-kB SEAP reporter activity ([2]; agonist: LPS (TLR4) 0.1 ug/mL): 0.243 | NF-kB SEAP reporter activity [2, 6]: 0.322 | NF-kB SEAP reporter activity [2, 7]: 0.0758 | NF-kB SEAP reporter activity [2, 8]: 0.286

Cl.OCCNCc1ccc(OCc2ccc(F)cc2)c(OCc2ccc(F)cc2)c1
NF-kB SEAP reporter activity [1, 4]: 1.41 | NF-kB SEAP reporter activity [1, 5]: 1.5

Cl.OCCNCc1ccc(OCc2ccc(F)cc2)c(OCc2ccc(F)cc2)c1 (library stock concentration (final ~1000-fold dilution): 10 mM)
NF-kB SEAP reporter activity ([3]; agonist: LPS (TLR4) 0.1 ug/mL): 0.702 | NF-kB SEAP reporter activity [3, 6]: 0.629 | NF-kB SEAP reporter activity [3, 7]: 0.301 | NF-kB SEAP reporter activity [3, 8]: 0.354

NC(=O)c1ccccc1
NF-kB SEAP reporter activity [1, 10]: 1.29

NC(=O)c1ccccc1 (library stock concentration (final ~1000-fold dilution): 10 mM)
NF-kB SEAP reporter activity ([2]; agonist: LPS (TLR4) 0.1 ug/mL): 1.11 | NF-kB SEAP reporter activity [2, 6]: 1.01 | NF-kB SEAP reporter activity [2, 7]: 1.04 | NF-kB SEAP reporter activity [2, 8]: 1.1

Cl.Cl.OCCN1CCN(CC/C=C2/c3ccccc3Sc3ccc(C(F)(F)F)cc32)CC1
NF-kB SEAP reporter activity [1, 4]: 1.58 | NF-kB SEAP reporter activity [1, 5]: 0.876

Cl.Cl.OCCN1CCN(CC/C=C2/c3ccccc3Sc3ccc(C(F)(F)F)cc32)CC1 (library stock concentration (final ~1000-fold dilution): 10 mM)
NF-kB SEAP reporter activity ([3]; agonist: LPS (TLR4) 0.1 ug/mL): 0.443 | NF-kB SEAP reporter activity [3, 6]: 0.412 | NF-kB SEAP reporter activity [3, 7]: 0.431 | NF-kB SEAP reporter activity [3, 8]: 0.63

COc1c(Cl)cc2c([nH]c3cnccc32)c1NC(=O)c1cccnc1C
NF-kB SEAP reporter activity [1, 9]: 0.467 | NF-kB SEAP reporter activity [1, 10]: 0.562

COc1c(Cl)cc2c([nH]c3cnccc32)c1NC(=O)c1cccnc1C (library stock concentration (final ~1000-fold dilution): 10 mM)
NF-kB SEAP reporter activity ([2]; agonist: LPS (TLR4) 0.1 ug/mL): 0.498 | NF-kB SEAP reporter activity [2, 6]: 0.382 | NF-kB SEAP reporter activity [2, 7]: 0.219 | NF-kB SEAP reporter activity [2, 8]: 0.33

O=C(O)C1(Cc2cccc(Nc3nccs3)n2)CCC(Oc2cccc(Cl)c2F)CC1 (stereo not drawn) (library stock concentration (final ~1000-fold dilution): 10 mM)
NF-kB SEAP reporter activity ([2]; agonist: LPS (TLR4) 0.1 ug/mL): 1.26 | NF-kB SEAP reporter activity [2, 6]: 0.637 | NF-kB SEAP reporter activity [2, 7]: 0.778 | NF-kB SEAP reporter activity [2, 8]: 0.563

O=C(O)C1(Cc2cccc(Nc3nccs3)n2)CCC(Oc2cccc(Cl)c2F)CC1 (stereo not drawn)
NF-kB SEAP reporter activity [1, 9]: 1.07 | NF-kB SEAP reporter activity [1, 10]: 1.04

Cl.Cl.c1cc(-c2nc3ccc(OCCCN4CCCC4)cc3o2)ccc1OCCCN1CCCC1 (library stock concentration (final ~1000-fold dilution): 1 mM)
NF-kB SEAP reporter activity ([2]; agonist: LPS (TLR4) 0.1 ug/mL): 0.935 | NF-kB SEAP reporter activity [2, 6]: 0.224 | NF-kB SEAP reporter activity [2, 7]: 1.11 | NF-kB SEAP reporter activity [2, 8]: 1.06

Cl.Cl.c1cc(-c2nc3ccc(OCCCN4CCCC4)cc3o2)ccc1OCCCN1CCCC1
NF-kB SEAP reporter activity ([1]; library stock concentration (final ~1000-fold dilution): 1 mM, cytotoxicity flag (confluency mask): not cytotoxic, agonist: Imiquimod (TLR7) […]): 1.27 | NF-kB SEAP reporter activity ([1]; library stock concentration (final ~1000-fold dilution): 1 mM, cytotoxicity flag (confluency mask): not cytotoxic, agonist: MPLA (TLR4) […]): 1.08

N#CC1(c2ccc(NC(=O)c3cccnc3NCc3ccncc3)cc2)CCCC1
NF-kB SEAP reporter activity [1, 10]: 0.787

N#CC1(c2ccc(NC(=O)c3cccnc3NCc3ccncc3)cc2)CCCC1 (library stock concentration (final ~1000-fold dilution): 10 mM)
NF-kB SEAP reporter activity ([2]; agonist: LPS (TLR4) 0.1 ug/mL): 1.14 | NF-kB SEAP reporter activity [2, 6]: 0.66 | NF-kB SEAP reporter activity [2, 7]: 0.639 | NF-kB SEAP reporter activity [2, 8]: 0.296

CC(ONC(=O)c1cc(C(F)(F)F)cc(C(F)(F)F)c1)C(=O)Nc1ccc(Cl)cc1 (stereo not drawn) (library stock concentration (final ~1000-fold dilution): 10 mM)
NF-kB SEAP reporter activity ([2]; agonist: LPS (TLR4) 0.1 ug/mL): 1.45 | NF-kB SEAP reporter activity [2, 6]: 0.913 | NF-kB SEAP reporter activity [2, 7]: 0.239 | NF-kB SEAP reporter activity [2, 8]: 0.6

CC(ONC(=O)c1cc(C(F)(F)F)cc(C(F)(F)F)c1)C(=O)Nc1ccc(Cl)cc1 (stereo not drawn)
NF-kB SEAP reporter activity [1, 9]: 0.98 | NF-kB SEAP reporter activity [1, 10]: 1.4

CC1OC(OC2C(O)C(OCCc3ccc(O)c(O)c3)OC(CO)C2OC(=O)/C=C/c2ccc(O)c(O)c2)C(O)C(O)C1O (stereo not drawn)
NF-kB SEAP reporter activity [1, 10]: 1.02

CC1OC(OC2C(O)C(OCCc3ccc(O)c(O)c3)OC(CO)C2OC(=O)/C=C/c2ccc(O)c(O)c2)C(O)C(O)C1O (stereo not drawn) (library stock concentration (final ~1000-fold dilution): 10 mM)
NF-kB SEAP reporter activity ([2]; agonist: LPS (TLR4) 0.1 ug/mL): 1.21 | NF-kB SEAP reporter activity [2, 6]: 1.05 | NF-kB SEAP reporter activity [2, 7]: 1.03 | NF-kB SEAP reporter activity [2, 8]: 1.11
